Assay results as given in publication PMC6051341, “Sequential binding of ezrin and moesin to L-selectin regulates monocyte protrusive behaviour during transendothelial migration” (Journal of Cell Science, 2018).

Biological target: T1, WT L-selectin–GFP (human, UniProt P14151 39-372)
T1 construct: L-selectin, human; generated as previously described (Rzeniewicz et al., 2015); GFP on the C-terminal tail; also called L-sel-GFP; human L-selectin-GFP; source: THP-1 cells, lentiviral expression, in fixed cells; not shown: GFP, C-terminal, kept
T1 sequence (looked up): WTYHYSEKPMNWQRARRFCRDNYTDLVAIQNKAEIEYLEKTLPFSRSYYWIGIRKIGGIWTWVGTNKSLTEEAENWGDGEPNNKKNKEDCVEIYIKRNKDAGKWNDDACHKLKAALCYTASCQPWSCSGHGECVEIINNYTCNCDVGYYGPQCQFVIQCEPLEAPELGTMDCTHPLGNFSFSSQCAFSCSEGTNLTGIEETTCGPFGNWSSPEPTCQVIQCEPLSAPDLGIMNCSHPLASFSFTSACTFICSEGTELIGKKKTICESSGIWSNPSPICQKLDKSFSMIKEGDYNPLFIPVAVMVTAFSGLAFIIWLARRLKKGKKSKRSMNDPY
Assay: FRET or BRET; FLIM measurement of FRET between GFP (donor, on L-selectin) and RFP (on the ERM protein); unchallenged THP-1 cells seeded onto poly-L-lysine-coated coverslips for 10 min at 37°C, fixed
Conditions: partners not purified

B1: ezrin–RFP (natural protein, human)
chain: [left out - about 300 residues]PDTIEVQQMKAQAREEKHQKQLERQQLETEKKRRETVEREKEQMMREKEELMLRLQDYEEKTKKAERELSEQIQRALQLEEERKRAQEEAERLEADRMAALRAKEELERQAVDQIKSQEQLAAELAEYTAKIALLEEARRRKEDEVEEWQHRAKEAQDDLVKTKEELHLVMTAPPPPPPPVYEPVSYHVQESLQDEGAEPTGYSAELSSEGIRDDRNEEKRITEAEKNERVQRQLLTLSSELSQARDENKRTHNDIIHNENMRQGRDKYKTLRQIRQGNTKQRIDEFEAL
notes: ezrin, human, open reading frame in the pHR'SIN-SEW lentiviral vector; also called Ezr-RFP; source: THP-1 cells (ezrin-knockdown), lentiviral expression, in fixed cells; not shown: RFP, C-terminal, kept
In the case of B1, the “fold FRET efficiency against moesin with the same L-selectin (unchallenged cells)” value is reported as 1.7 fold.
